In PubChem BioAssay AID1745853 (National Center for Advancing Translational Sciences (NCATS), 2022) one finds activity change, negative = inhibition data, which are given here for 29 compounds.

Holding throughout (experiment): Primary Screen for Target Class Profiling of Small Molecule Inhibitors of Methyltransferases
Assay [1] has as its target Glycine N-methyltransferase (Homo sapiens) (UniProt Q14749). The conditions noted are these: purified enzyme, MTase-Glo SAH luminescence; measured here: GNMT inhibition; at 40 µM; stronger effect = lower value. In a few lines: (§1)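 Each enzyme was reacted with SAM and its substrate, with compounds tested once at 40 uM; SAH formed was read by MTase-Glo luminescence.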
For assay [2], the target named is Guanidinoacetate N-methyltransferase (Homo sapiens) (UniProt Q14353). The conditions noted are these: purified enzyme, MTase-Glo SAH luminescence; measured here: GAMT inhibition; at 40 µM; stronger effect = lower value. In a few lines: as §1
Assay [3] concerns the target Histamine N-methyltransferase (Homo sapiens) (UniProt P50135). Particulars: purified enzyme, MTase-Glo SAH luminescence; measured here: HNMT inhibition; at 40 µM; stronger effect = lower value. The gist of the method: as §1
In assay [4] the target is Nicotinamide N-methyltransferase (Homo sapiens) (UniProt P40261). The conditions noted are these: purified enzyme, MTase-Glo SAH luminescence; measured here: NNMT inhibition; at 40 µM; stronger effect = lower value. The gist of the method:
as §1

Assay [5] addresses Phenylethanolamine N-methyltransferase (Homo sapiens) (UniProt P11086). Particulars: purified enzyme, MTase-Glo SAH luminescence; measured here: PNMT inhibition; at 40 µM; stronger effect = lower value. The gist of the method:
as §1

Some of the results follow. Shown are side measurements of this screen, not its main read-out; they come without a call.
On the % scale 0 is the no-effect control and ±100 the full control effect.

On to `CCOc1ccc(CN2C(=O)c3cc4ccccc4n3CC2(C)C(=O)NCCC(C)C)cc1` (configuration not stated), for which the activity change, negative = inhibition in assay [1] is 7.94%; in assay [2], 3.65%; in assay [3], 7.59%; in assay [4], 8.43%; in assay [5] it was 0.193%.

Regarding `COc1cccc(CN2C(=O)c3nc4ccccc4n3CC2(C)C(=O)NCc2ccccc2)c1` (configuration not stated), the activity change, negative = inhibition in assay [1] was -6.46%; in assay [2] it was 6.02%; in assay [3], -4.63%; in assay [4] it was -5.87%; in assay [5] it was -1.04%.

Regarding `C=C1C(=O)OC2/C=C(\COC(C)=O)CC/C=C(\C=O)CC(OC(=O)CC(C)C)C12` (configuration not stated), the activity change, negative = inhibition was 0% in assay [1]; 9.37% in assay [2]; 7.92% in assay [3]; -3.39% in assay [4]; 7.26% in assay [5].

Regarding `COC(=O)c1ncn2c1C(=O)N(c1ccc(C)cc1C)C(C)(C(=O)NC1CCCC1)C2` (configuration not stated), the activity change, negative = inhibition in assay [1] is -4.19%; in assay [2] it was -0.604%; in assay [3] it was -8.7%; in assay [4], -2.21%; in assay [5] it was -3.62%.

With `CN1CCC(N[C@@H]2CCC[C@@H](C(=O)NC3CC3)CC(=O)N(C)C2)CC1`, the activity change, negative = inhibition was -5.22% in assay [1]; -8.35% in assay [2]; -4.69% in assay [3]; -10.8% in assay [4]; -9.3% in assay [5].

For the compound `COc1ccc(N2C(=O)CSc3c(c4ccccc4n3C)C2C(=O)NCc2ccccc2)cc1OC` (configuration not stated), the activity change, negative = inhibition in assay [1] amounted to 3.58%; in assay [2] it was 0%; in assay [3] it was 8.14%; in assay [4], 1.18%; in assay [5], 1.1%.

Take `Cc1nnn2c(C(=O)NCc3ccc(Cl)cc3)cccc12`: the activity change, negative = inhibition in assay [1] was -16.9%; in assay [2], -9.98%; in assay [3] it was -7.26%; in assay [4], -22.6%; in assay [5], -10.3%.

As for `CC[C@H]1CN(C(=O)NC(C)C)CC[C@H]1CC(=O)N(C)CCC#N`, the activity change, negative = inhibition in assay [1] was -5.45%; in assay [2], -5.28%; in assay [3], -3.58%; in assay [4], -7.54%; in assay [5], -7.6%.

For the compound `O=C(c1ccccc1)N1CC2(CCCN2Cc2cccnc2)Cc2ccccc21` (configuration not stated), the activity change, negative = inhibition in assay [1] was -6.28%; in assay [2], -8.95%; in assay [3], -8.82%; in assay [4], -12.6%; in assay [5] it was -2.88%.

Take `Cc1ccc(C)c(N2CCN(C(=O)c3ccc4c(=O)nc5c(-c6ccccc6)n[nH]n5c4c3)CC2)c1`: the activity change, negative = inhibition in assay [1] was -21.3%; in assay [2], 2.75%; in assay [3], -0.002%; in assay [4] it was -7.35%; in assay [5], -3.12%.

On to `Cc1noc(C)c1CCCNC(=O)c1ccc(NC[C@H]2C[C@H]3C=C[C@H]2C32CC2)nc1`, for which the activity change, negative = inhibition in assay [1] is -3.52%; in assay [2], -3.58%; in assay [3], -21%; in assay [4] it was -10.9%; in assay [5], -1.98%.

For the compound `CN(Cc1ccc(F)cc1)C1CCCc2ccccc21` (configuration not stated), the activity change, negative = inhibition in assay [1] was -1.57%; in assay [2], -0.95%; in assay [3] it was -2.98%; in assay [4] it was -5.78%; in assay [5], -1.66%.

With `COc1cc(C2c3cc4c(c(O)c3CC(CO)C2C(=O)O)OCO4)cc(OC)c1O` (configuration not stated), the activity change, negative = inhibition was 6.61% in assay [1]; 3.61% in assay [2]; 10.7% in assay [3]; -7.17% in assay [4]; 2.08% in assay [5].

For the compound `NC(Cc1c[nH]c2ccc(O)cc12)C(=O)O` (configuration not stated), the activity change, negative = inhibition in assay [1] is -6.04%; in assay [2], 5.36%; in assay [3], -27%; in assay [4] it was -9.17%; in assay [5], 5.36%.

Consider `CCCn1c(=O)c2ccccc2n2c(=O)n(CC(=O)c3ccc(Br)cc3)nc12`, for which the activity change, negative = inhibition in assay [1] came out at 4.26%; in assay [2] it was 0%; in assay [3], 10.7%; in assay [4], 5.88%; in assay [5] it was 4.26%.

For the compound `CC(=O)NC1(C)CN(Cc2ccc(-c3cccc(F)c3)s2)C1`, the activity change, negative = inhibition in assay [1] is -2.64%; in assay [2] it was -1.34%; in assay [3], -15.6%; in assay [4] it was -2.02%; in assay [5], -0.172%.

Take `O=C(CCc1nnc2n(Cc3ccc(Cl)cc3)c(=O)c3ccccc3n12)NCC1CCCO1` (configuration not stated): the activity change, negative = inhibition is -2.95% in assay [1]; 1.54% in assay [2]; 2.14% in assay [3]; 8.6% in assay [4]; -1.95% in assay [5].

On to `CCn1ccc(C(=O)N2[C@@H]3CC[C@H]2CC(NC(=O)c2ccc(F)cc2)C3)n1` (some centres not stated), for which the activity change, negative = inhibition in assay [1] is 0.228%; in assay [2], 0.67%; in assay [3], 2.74%; in assay [4], -0.997%; in assay [5], 6.73%.

Turning to `CC(C)NC(=O)N[C@H]1C[C@H]2C(=O)NC[C@@H](CCC(=O)N3CCN(c4ccccn4)CC3)N2C1`, the activity change, negative = inhibition was -4.4% in assay [1]; -5.32% in assay [2]; -0.883% in assay [3]; -2.97% in assay [4]; -12.3% in assay [5].

For the compound `CC(C)Cn1nc(CNC(=O)c2ccccc2C(F)(F)F)c2ccccc21`, the activity change, negative = inhibition in assay [1] was 3.11%; in assay [2] it was 2.56%; in assay [3], 1.78%; in assay [4], -1%; in assay [5], 5.09%.

Consider `CC(C)CCNC(=O)C1(C)Cn2c(ccc2-c2ccco2)C(=O)N1CCCc1ccccc1` (configuration not stated), for which the activity change, negative = inhibition in assay [1] was -10.7%; in assay [2] it was 0%; in assay [3] it was 2.02%; in assay [4], -1.61%; in assay [5], -3.89%.

For `Cc1c(Cl)cccc1NC(=O)N1CCCC1c1nncn1-c1ccccc1` (configuration not stated), the activity change, negative = inhibition in assay [1] was -4.11%; in assay [2], -4.23%; in assay [3], -1.5%; in assay [4] it was -9.5%; in assay [5] it was -4.84%.

Regarding `CN1C(=O)c2cc(C(=O)Nc3ccc(F)cc3F)nn2CC1(C)C(=O)NC1CCCCCC1` (configuration not stated), the activity change, negative = inhibition in assay [1] was -0.959%; in assay [2] it was 1.94%; in assay [3] it was -1.29%; in assay [4] it was 2.23%; in assay [5] it was 1.2%.

In the case of `CCC(C)N1C(=O)c2cc3sccc3n2CC1(C)C(=O)NC1CCCCCCC1` (configuration not stated), the activity change, negative = inhibition was -3.5% in assay [1]; 5.07% in assay [2]; -4.85% in assay [3]; -1.39% in assay [4]; -1.49% in assay [5].

For `COc1ccc(CCNC(=O)Cn2ccc3cc(S(=O)(=O)N4CCCCC4)ccc32)cc1OC`, the activity change, negative = inhibition is -6.25% in assay [1]; 4.88% in assay [2]; 6.92% in assay [3]; -0.246% in assay [4]; 3.77% in assay [5].

`CO[C@H]1O[C@@H]2O[C@@]3(C)CCC4[C@H](C)CCC([C@H]1C)[C@]42OO3` (some centres not stated): the activity change, negative = inhibition was 4.03% in assay [1] and 12.9% in assay [3].

For `CC1C(=O)N(C)C(=O)c2nc[nH]c21` (configuration not stated), the activity change, negative = inhibition is 3.49% in assay [1]; 11.1% in assay [2]; 8.71% in assay [3]; -5.49% in assay [4]; 1.13% in assay [5].

Turning to `CC1CCN(S(=O)(=O)c2ccc3c(ccn3CCC(=O)NC3CCCc4ccccc43)c2)CC1` (configuration not stated), the activity change, negative = inhibition in assay [1] is 0.567%; in assay [2] it was 3.86%; in assay [3] it was -5.26%; in assay [4] it was -6.85%; in assay [5] it was -3.66%.

`O=C(NC1CCC1)c1ccc2nccn2c1`: the activity change, negative = inhibition in assay [1] was -4.09%; in assay [2], -3.88%; in assay [3], -4.28%; in assay [4], -7.86%; in assay [5] it was -4.22%.
